Results on 55 compounds are retold here after ChEMBL document CHEMBL4888484, “Replenishing the malaria drug discovery pipeline: Screening and hit evaluation of the MMV Hit Generation Library 1 (HGL1) against asexual blood stage Plasmodium falciparum ,using a nano luciferase reporter read-out” (2022).

The campaign covered roughly 150,000 compounds. About 540 (0.36%) showed an effect of 50% or more. This is one part of the list.

The test deals with Plasmodium falciparum. Description: Primary screen in NF54 nanoGlo assay, in single point, at 2uM, 72h; a lower Z score goes with more inhibition. Conditions: timepoint 72 hour. Type of test: functional, Erythrocyte.
Take `O=C(NCCn1cc(-c2ccoc2)cn1)C1CCCC1`: the “% Inhibition” value is 18% and the Z score is reported as -2.24.
For `O=C(C[C@H]1CCCOC1)NCc1ccno1`, in that order: -1% and 0.21.
For `COC(=O)[C@H](C)n1nc2c(S(=O)(=O)N3CCOCC3)cccn2c1=O` the same measures were 1% and -0.15.
For `CN(Cc1ccc2c(c1)CN(C(=O)c1ccc(Oc3ccccc3)o1)CCO2)Cc1cc(C2CC2)[nH]n1`, in that order: -5% and 0.97.
With `O=C(Cc1cccs1)N1CC[C@H](CCOc2ccccc2)C1`, the “% Inhibition” value is -12% and the Z score is listed as 2.3.
Take `COc1ccc(N2C[S@@+]([O-])CC2=O)cc1`: the “% Inhibition” value is -7% and the Z score is given as 0.96.
In the case of `O=C(c1cnc2ccccc2n1)N1CCN(c2cccc(C(F)(F)F)c2)CC1`, the “% Inhibition” value was determined as 6% and the Z score was -1.16.
For `CCCCN1C(=O)CC2(Oc3ccccc3O2)C1=O` the same measures were 0% and -0.02.
Consider `Cc1nc(C(=O)NCCc2nc3ccccc3[nH]2)c(C)s1`, for which the “% Inhibition” value is listed as -7% and the Z score is on record as 0.88.
For `CC(C)(O)CN1CCN(C(=O)c2cc3c([nH]2)CCCC3)CC1`, in that order: 2% and -0.41.
For `Cc1cccc(-c2nocc2CCC(=O)N2CCN(c3ccccn3)CC2)c1`, in that order: -14% and 1.92.
For `N[C@H]1CCN(c2ncncc2-c2nc(-c3ccsc3)no2)C1` the same measures were -7% and 0.83.
For the compound `O=C(NCCC(c1ccccc1)c1ccccc1)c1cc(=O)c(OCc2ccccc2)c[nH]1`, the “% Inhibition” value is listed as -4% and the Z score came to 0.56.
For `Cc1nnc(-c2ccccc2-c2cc(F)cc3c2O[C@@H](CN)C3)o1` the same measures were 0% and 0.08.
For `CCn1nc(C)c(CNc2cncc(-c3cccs3)n2)n1` the same measures were 17% and -2.16.
For `OCc1cccc(NCc2cnc(-c3cccs3)s2)c1`, in that order: 0% and -0.06.
Regarding `CC1(C#N)CCN(C(=O)Nc2cccc(CCC(F)(F)F)c2)CC1`, the “% Inhibition” value is listed as 8% and the Z score was -1.08.
For `CCC1CN(C(=O)c2cnc3c(c2)NC(=O)CO3)CC(CC)O1` (stereo not given), in that order: -10% and 1.64.
For `CN(C(=O)C1CCS(=O)(=O)CC1)c1cc(Cl)cc(Cl)c1`, in that order: 7% and -0.82.
For `Cc1cc(C)nc(CCNc2nc(C)cc(C3CCC3)n2)n1`, in that order: -5% and 0.58.
As to `O=C(CNc1ccccc1Oc1ncc(Cl)cc1Cl)N1CCOCC1`, the “% Inhibition” value is -8% and the Z score is 1.35.
For `O=C1c2ccccc2[C@H]2N1CCN2c1ccccc1` the same measures were 38% and -4.9.
For `CC(C)(C)OC(=O)NCc1c(O)ccc2ncccc12` the same measures were 5% and -1.02.
For `CCOCCC(=O)NCC1(CC)CCCC1` the same measures were -4% and 0.54.
In the case of `CCOc1ccccc1C(=O)N1C[C@H]2CN(C(=O)C(C)C)C[C@@]2(CO)C1`, the “% Inhibition” value is given as -9% and the Z score is reported as 1.21.
For `Cc1c(C2=NO[C@H]3C(=O)N(c4ccc5ccccc5c4)C(=O)[C@@H]23)cnn1C` the same measures were 50% and -5.99.
For `Cc1ccc(-n2nc(C)c3c(N)c4c(nc32)CCCC4=O)cc1`, in that order: -1% and 0.22.
For `CC1CCCN(c2nc3nonc3nc2N2CCCC(C)C2)C1` (stereo not given) the same measures were 8% and -0.91.
For `CCN1CCCN(CCOc2ccccc2)CC1`, the “% Inhibition” value is recorded as -8% and the Z score is reported as 1.57.
For `Nc1ncc(CN2CCC(Cc3nnc(CO)n3-c3ccccc3)CC2)cn1`, in that order: 1% and -0.13.
For `O=C(CC[C@@H]1CCCN2CCCC[C@H]12)NCc1ccc(C(=O)O)s1` the same measures were 6% and -0.56.
For `CC(C)C[C@H]1NC(=O)C(c2cccs2)NC1=O` (stereo not given in full), in that order: -19% and 2.53.
For `Cc1oc(C#N)cc1C(=O)NC(C)C1CCN(Cc2ccccc2)C1` (stereo not given), the “% Inhibition” value is -17% and the Z score turned out to be 1.71.
For `CCN(Cc1ncnn1C)C1CCCCC1C` (stereo not given) the same measures were -7% and 1.37.
For `O=S(=O)(c1cccnc1)N1CC[C@H](c2nc(-c3ccccc3)no2)C1` the same measures were -11% and 1.44.
For `O=C1[C@@H]2CCCN2C(=O)N1Cc1cc(F)ccc1Br` the same measures were 3% and -0.6.
As to `Cc1cc(C)n(-c2ncc(NC(=O)c3ccccc3Cl)cn2)n1`, the “% Inhibition” value is on record as -8% and the Z score is listed as 1.18.
For `Cc1cccc(NC(=O)[C@@H](C#N)C(=O)COc2cccc(C)c2)c1` the same measures were -6% and 1.17.
With `NC(=O)c1ccc(-c2nc3c(c(N4CCc5ncccc5C4)n2)CCNC3)cc1`, the “% Inhibition” value is given as -12% and the Z score came to 1.88.
For `COc1ccc(CCN2C(=O)N[C@@H](CC(=O)N3CCOCC3)C2=O)cc1` the same measures were -9% and 1.38.
For `CN(Cc1cccc(F)c1)C(=O)c1cc(S(=O)(=O)N2CCOCC2)ccc1N1CCCC1` the same measures were -5% and 0.75.
For `O=c1n(CCOc2ccccc2)nc2c(S(=O)(=O)N3CCCC3)cccn12`, in that order: -11% and 1.73.
With `O=S(=O)(N=C1CCCCCCN1)c1cc(Br)ccc1Br`, the “% Inhibition” value is 2% and the Z score is on record as -0.38.
For `Cc1ncnc(N(C)C[C@H](C)c2nccs2)c1C` the same measures were 26% and -3.79.
On to `COC(=O)CN(CCOC1CCCCC1C)Cc1cnn(C)c1` (stereo not given), for which the “% Inhibition” value was -3% and the Z score stood at 0.27.
For `CC(C)c1nnnn1CC(=O)N1CCOc2c(F)ccc(F)c21` the same measures were -7% and 1.23.
For `COC1CCC2OCCN(C(=O)c3ccccc3CN3CCOCC3)C2C1` (stereo not given), in that order: -9% and 1.
Take `O=C(NC1CC1)N1CCN(C(c2ccccc2)c2ccccc2)CC1`: the “% Inhibition” value is 0% and the Z score is listed as -0.03.
For `Cc1nc(-c2cccc(C(=O)N3C[C@H]4CC[C@@H](C3)[C@H]4O)c2)nn1C` the same measures were 10% and -1.84.
For `CC(C)[C@H](NCc1cnn(C(C)C)c1)C1(CO)CCCC1`, in that order: -7% and 0.98.
For `CCn1c(CO)nnc1[C@H]1C[C@@H](NS(=O)(=O)c2cc(C)ccc2OC)C1`, in that order: -8% and 0.93.
Turning to `Cc1cccc(N(C)S(=O)(=O)c2c(C(=O)N3CCOCC3)c(C)n(C)c2C)c1`, the “% Inhibition” value is on record as -11% and the Z score stood at 2.19.
For `CCc1cc(C(=O)N2CCC[C@@H]2C(=O)O)sc1C` the same measures were -5% and 0.68.
For `COC[C@H]1CCN1C(=O)c1nnn(C)c1C` the same measures were 0% and -0.01.
For `COC(=O)c1ccccc1NC(=O)N1CCC2(CCC(=O)N(C)CC2)CC1`, in that order: -12% and 1.43.

The term % Inhibition denotes the relative decrease from the control value, in per cent.
